How the values were obtained:
AXL = AXL (Homo sapiens, UniProt P30530); experiment: Competition with Gas6 for binding to AXL
A431 tumors = experiment: A431 xenograft model (high Gas6); type: in vivo; settings: 3 mg/kg i.p., SCID mice
Protocol: (§1) Tumor induction was performed by subcutaneous injection of 5×10^6 A431 or LCLC-103H tumor cells (both obtained from Leibniz-Institut—Deutsche Sammlung von Mikroorganismen and Zellkulturen GmbH (DSMZ)) in 200 μL PBS in the right flank of female SCID mice. Treatment was started 14-21 days after tumor cell inoculation, when the average tumor size was >100-200 mm^3 and distinct tumor growth was observed. Mice received a single injection or a total of 4 biweekly intraperitoneal injections with IgG1-AXL-vcMMAE ADCs or control antibody (unconjugated IgG1-b12), as indicated. Tumor volume was determined at least two times per week. Tumor volumes (mm^3) were calculated from caliper (PLEXX) measurements as: 0.52×(length)×(width)^2.

LCLC-103H tumors = experiment: LCLC-103H xenograft model (low Gas6, Example 5); type: in vivo; settings: 3 mg/kg i.p., SCID mice
Protocol: as §1

B1: IgG1-AXL-061: anti-AXL antibody 061 (VH SEQ ID No 143, VL SEQ ID No 144) (antibody, V domains shown)
VH: QVQLVQSGAEVKKPGASVKVSCKASGYAFTGYGISWVRQAPGQGLEWIGWISAYNGNTNYVQNLQDRVTMTTDTSTSTAYMELRSLRSDDTAVYYCARDHISMLRGIIIRNYWGQGTLVTVSS
VL: [about 100 residues not printed]
modifications: IgG1 constant regions; homo sapiens
competition with Gas6 for binding to AXL (AXL): compete

B2: IgG1-AXL-061-vcMMAE: anti-AXL antibody 061 (Ig1 binder, competes with Gas6) conjugated to vcMMAE (conjugate)
VH: B1 VH
VL: [about 100 residues not printed]
anti-tumor activity on A431 tumors (A431 tumors): did not show anti-tumor activity
anti-tumor activity in the LCLC-103H xenograft model (LCLC-103H tumors): induced tumor regression

Reference: patent publication US20190233522A1, “NEW DOSAGE REGIMENS FOR ANTIBODY DRUG CONJUGATES BASED ON ANTI-AXL ANTIBODIES” (GENMAB A/S, priority 2016, published 2019)
